Test results as given in patent US20220356245A1 (FORTY SEVEN, published 2022).

T1: mouse CD47 (mCD47) expressed on CHO cells (mouse, UniProt Q61735 19-303)
T1 construct: whole, on cells; also called CHO-mCD47
T1 sequence (looked up): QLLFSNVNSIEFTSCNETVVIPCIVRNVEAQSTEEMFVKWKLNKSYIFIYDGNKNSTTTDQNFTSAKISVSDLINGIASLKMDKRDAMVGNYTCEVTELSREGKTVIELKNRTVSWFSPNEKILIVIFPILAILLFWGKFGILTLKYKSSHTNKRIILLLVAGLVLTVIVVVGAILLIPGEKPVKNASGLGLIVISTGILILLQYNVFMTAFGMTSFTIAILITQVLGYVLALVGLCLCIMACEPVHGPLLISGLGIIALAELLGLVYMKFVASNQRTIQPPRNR


Experiments:
[1] = molecular target: T2, hu-sCD47-6His; extracellular domain of human CD47 antigen with 6His-tag (human); experiment: SPR Biacore; head read as x 10^-4;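 as to Kd: antibodies captured on anti-IgG CM5 chip, soluble His-tagged human CD47 flowed over at rising concentrations, five 10 min injections, flow cell 1 as reference, 1:1 model fit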;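 as to kon: antibodies captured on anti-IgG CM5 chip, soluble His-tagged human CD47 flowed over at rising concentrations, five 10 min injections, flow cell 1 as reference, 1:1 model fit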
T2 construct: also called hCD47-his; soluble hCD47

[2] = molecular target: T3, human CD47 (hCD47) expressed on cells (human, UniProt Q08722); experiment: flow cytometry, Raji cells
T3 construct: Transfected CHO cells or endogenous CD47 of human cells; also called CHO-hCD47; CD47 on Raji cells

[3] = molecular target: T2, hu-sCD47-6His; extracellular domain of …; experiment: SPR Biacore
[4] = molecular target: T3, human CD47 (hCD47) expressed on cells; experiment: flow cytometry, Raji cells, competition with hSIRPα
[5] = molecular target: T1, mouse CD47 (mCD47) expressed on CHO …; experiment: flow cytometry, CHO-mCD47 cells (not shown)

| koff [1] | EC50 [2] | Kd [3] | kon [3] | IC50 [4] | binding result [5] | Binder |
| --- | --- | --- | --- | --- | --- | --- |
| 0.00066 s⁻¹ | 0.156 µg/mL | 3.77 nM | 189000 M⁻¹ s⁻¹ | 0.076 µg/mL | no binding | h20-VH2-VL2 (candidate 20.7) (antibody, human IgG4 S228P, kappa, hIgG4-S228P/kappa; also called h20-H2-L2) heavy: QVQLVQSGAEVKKPGASVKVSCKASGYSFTDYYINWVRQAPGQGLEWMGRIYPGIGNTYYNKKFKGRVTITRDTSASTAYMELSSLRSEDTAVYYCARGHYGRGMDYWGQGTLVTVSSASTKGPSVFPLAPCSRSTSESTAALGCLVKDYFPEPVTVSWNSGALTSGVHTFPAVLQSSGLYSLSSVVTVPSSSLGTKTYTCNVDHKPSNTKVDKRV[human IgG4 Fc with S228P (EU numbers) omitted] light: DIVMTQSPDSLAVSLGERATINCKSSQSLLNSIDQKNYLAWYQQKPGQPPKLLIYFASTKESGVPDRFSGSGSGTDFTLTISSLQAEDVAVYYCQQHYSTPWTFGGGTKVEIKRTVAAPSVFIFPPSDEQLKSGTASVVCLLNNFYPREAKVQWKVDNALQSGNSQESVTEQDSKDSTYSLSSTLTLSKADYEKHKVYACEVTHQGLSSPVTKSFNRGEC |
| 0.00111 s⁻¹ | 0.218 µg/mL | 7.82 nM | 136000 M⁻¹ s⁻¹ | 0.216 µg/mL | no binding | h20-VH1-VL2 (candidate 20.2) (antibody, human IgG4 S228P, kappa, hIgG4-S228P/kappa; also called h20-H1-L2) heavy: QVQLLESGAVLARPGTSVKISCKASGYSFTDYYINWVKQRPGQGLEWIGRIYPGIGNTYYNKKFKGRAKLTAATSASIAYLEFSSLTNEDSAVYYCARGHYGRGMDYWGQGTLVTVSSASTKGPSVFPLAPCSRSTSESTAALGCLVKDYFPEPVTVSWNSGALTSGVHTFPAVLQSSGLYSLSSVVTVPSSSLGTKTYTCNVDHKPSNTKVDKRV[human IgG4 Fc with S228P (EU numbers) omitted] light: DIVMTQSPDSLAVSLGERATINCKSSQSLLNSIDQKNYLAWYQQKPGQPPKLLIYFASTKESGVPDRFSGSGSGTDFTLTISSLQAEDVAVYYCQQHYSTPWTFGGGTKVEIKRTVAAPSVFIFPPSDEQLKSGTASVVCLLNNFYPREAKVQWKVDNALQSGNSQESVTEQDSKDSTYSLSSTLTLSKADYEKHKVYACEVTHQGLSSPVTKSFNRGEC |
| 0.000634 s⁻¹ | 0.124 µg/mL | 4.18 nM | 168000 M⁻¹ s⁻¹ | 0.086 µg/mL | no binding | h20-VH4-VL2 (candidate 20.17) (antibody, human IgG4 S228P, kappa, hIgG4-S228P/kappa; also called h20-H4-L2) heavy: QVQLVQSGAEVKKPGSSVKVSCKASGYSFTDYYINWVRQAPGQGLEWMGRIYPGIGNTYYNKKFKGRVTITADKSTSTAYMELSSLRSEDTAVYYCARGHYGRGMDYWGQGTTVTVSSASTKGPSVFPLAPCSRSTSESTAALGCLVKDYFPEPVTVSWNSGALTSGVHTFPAVLQSSGLYSLSSVVTVPSSSLGTKTYTCNVDHKPSNTKVDKRV[human IgG4 Fc with S228P (EU numbers) omitted] light: DIVMTQSPDSLAVSLGERATINCKSSQSLLNSIDQKNYLAWYQQKPGQPPKLLIYFASTKESGVPDRFSGSGSGTDFTLTISSLQAEDVAVYYCQQHYSTPWTFGGGTKVEIKRTVAAPSVFIFPPSDEQLKSGTASVVCLLNNFYPREAKVQWKVDNALQSGNSQESVTEQDSKDSTYSLSSTLTLSKADYEKHKVYACEVTHQGLSSPVTKSFNRGEC |
| 0.000561 s⁻¹ | 0.145 µg/mL | 2.79 nM | 222000 M⁻¹ s⁻¹ | 0.118 µg/mL | no binding | h20-VH3-VL1 (candidate 20.11) (antibody, human IgG4 S228P, kappa, hIgG4-S228P/kappa; also called h20-H3-L1) heavy: QVQLVQSGAEVKKPGASVKVSCKASGYSFTDYYINWVRQAPGQGLEWMGRIYPGIGNTYYNKKFKGRVTVTRDTSISTAHMELSSLRSDDTAVYYCARGHYGRGMDYWGQGTAVTVSSASTKGPSVFPLAPCSRSTSESTAALGCLVKDYFPEPVTVSWNSGALTSGVHTFPAVLQSSGLYSLSSVVTVPSSSLGTKTYTCNVDHKPSNTKVDKRV[human IgG4 Fc with S228P (EU numbers) omitted] light: DIVMTQSPDSLAVSLGERATINCKSSQSLLNSIDQKNYLAWYQQKPGQPPKLLIYFASTKESGVPDRFSGSGSGTDFTLTISSLQAEDVAVYYCQQHYSTPWTFGGGTKLEIKRTVAAPSVFIFPPSDEQLKSGTASVVCLLNNFYPREAKVQWKVDNALQSGNSQESVTEQDSKDSTYSLSSTLTLSKADYEKHKVYACEVTHQGLSSPVTKSFNRGEC |
| 0.000627 s⁻¹ | 0.177 µg/mL | 3.67 nM | 193000 M⁻¹ s⁻¹ | 0.098 µg/mL | no binding | h20-VH2-VL1 (candidate 20.6) (antibody, human IgG4 S228P, kappa, hIgG4-S228P/kappa; also called h20-H2-L1) heavy: QVQLVQSGAEVKKPGASVKVSCKASGYSFTDYYINWVRQAPGQGLEWMGRIYPGIGNTYYNKKFKGRVTITRDTSASTAYMELSSLRSEDTAVYYCARGHYGRGMDYWGQGTLVTVSSASTKGPSVFPLAPCSRSTSESTAALGCLVKDYFPEPVTVSWNSGALTSGVHTFPAVLQSSGLYSLSSVVTVPSSSLGTKTYTCNVDHKPSNTKVDKRV[human IgG4 Fc with S228P (EU numbers) omitted] light: DIVMTQSPDSLAVSLGERATINCKSSQSLLNSIDQKNYLAWYQQKPGQPPKLLIYFASTKESGVPDRFSGSGSGTDFTLTISSLQAEDVAVYYCQQHYSTPWTFGGGTKLEIKRTVAAPSVFIFPPSDEQLKSGTASVVCLLNNFYPREAKVQWKVDNALQSGNSQESVTEQDSKDSTYSLSSTLTLSKADYEKHKVYACEVTHQGLSSPVTKSFNRGEC |
| 0.00117 s⁻¹ | 0.189 µg/mL | 8.55 nM | 142000 M⁻¹ s⁻¹ | 0.174 µg/mL | no binding | h20-VH5-VL2 (candidate 20.22) (antibody, human IgG4 S228P, kappa, hIgG4-S228P/kappa; also called h20-H5-L2) heavy: QVQLVQSGAEVKKPGASVKVSCKASGYSFTDYYINWVRQAPGQGLEWMGRIYPGIGNTYYNKKFKGRVTMTRYTSISTAYMELSRLRSDDTAVYFCARGHYGRGMDYWGQGTTVTVSSASTKGPSVFPLAPCSRSTSESTAALGCLVKDYFPEPVTVSWNSGALTSGVHTFPAVLQSSGLYSLSSVVTVPSSSLGTKTYTCNVDHKPSNTKVDKRV[human IgG4 Fc with S228P (EU numbers) omitted] light: DIVMTQSPDSLAVSLGERATINCKSSQSLLNSIDQKNYLAWYQQKPGQPPKLLIYFASTKESGVPDRFSGSGSGTDFTLTISSLQAEDVAVYYCQQHYSTPWTFGGGTKVEIKRTVAAPSVFIFPPSDEQLKSGTASVVCLLNNFYPREAKVQWKVDNALQSGNSQESVTEQDSKDSTYSLSSTLTLSKADYEKHKVYACEVTHQGLSSPVTKSFNRGEC |
| 0.000979 s⁻¹ | 0.19 µg/mL | 9.2 nM | 116000 M⁻¹ s⁻¹ | 0.169 µg/mL | no binding | h20-VH5-VL1 (candidate 20.21) (antibody, human IgG4 S228P, kappa, hIgG4-S228P/kappa; also called h20-H5-L1) heavy: QVQLVQSGAEVKKPGASVKVSCKASGYSFTDYYINWVRQAPGQGLEWMGRIYPGIGNTYYNKKFKGRVTMTRYTSISTAYMELSRLRSDDTAVYFCARGHYGRGMDYWGQGTTVTVSSASTKGPSVFPLAPCSRSTSESTAALGCLVKDYFPEPVTVSWNSGALTSGVHTFPAVLQSSGLYSLSSVVTVPSSSLGTKTYTCNVDHKPSNTKVDKRV[human IgG4 Fc with S228P (EU numbers) omitted] light: DIVMTQSPDSLAVSLGERATINCKSSQSLLNSIDQKNYLAWYQQKPGQPPKLLIYFASTKESGVPDRFSGSGSGTDFTLTISSLQAEDVAVYYCQQHYSTPWTFGGGTKLEIKRTVAAPSVFIFPPSDEQLKSGTASVVCLLNNFYPREAKVQWKVDNALQSGNSQESVTEQDSKDSTYSLSSTLTLSKADYEKHKVYACEVTHQGLSSPVTKSFNRGEC |
| 0.000619 s⁻¹ | 0.113 µg/mL | 3.86 nM | 175000 M⁻¹ s⁻¹ | 0.1 µg/mL | no binding | h20-VH4-VL1 (candidate 20.16) (antibody, human IgG4 S228P, kappa, hIgG4-S228P/kappa; also called h20-H4-L1) heavy: QVQLVQSGAEVKKPGSSVKVSCKASGYSFTDYYINWVRQAPGQGLEWMGRIYPGIGNTYYNKKFKGRVTITADKSTSTAYMELSSLRSEDTAVYYCARGHYGRGMDYWGQGTTVTVSSASTKGPSVFPLAPCSRSTSESTAALGCLVKDYFPEPVTVSWNSGALTSGVHTFPAVLQSSGLYSLSSVVTVPSSSLGTKTYTCNVDHKPSNTKVDKRV[human IgG4 Fc with S228P (EU numbers) omitted] light: DIVMTQSPDSLAVSLGERATINCKSSQSLLNSIDQKNYLAWYQQKPGQPPKLLIYFASTKESGVPDRFSGSGSGTDFTLTISSLQAEDVAVYYCQQHYSTPWTFGGGTKLEIKRTVAAPSVFIFPPSDEQLKSGTASVVCLLNNFYPREAKVQWKVDNALQSGNSQESVTEQDSKDSTYSLSSTLTLSKADYEKHKVYACEVTHQGLSSPVTKSFNRGEC |
| 0.000691 s⁻¹ | 0.193 µg/mL | 6.45 nM | 120000 M⁻¹ s⁻¹ | 0.161 µg/mL | no binding | h20-VH1-VL1 (candidate 20.1) (antibody, human IgG4 S228P, kappa, hIgG4-S228P/kappa; also called h20-H1-L1) heavy: QVQLLESGAVLARPGTSVKISCKASGYSFTDYYINWVKQRPGQGLEWIGRIYPGIGNTYYNKKFKGRAKLTAATSASIAYLEFSSLTNEDSAVYYCARGHYGRGMDYWGQGTLVTVSSASTKGPSVFPLAPCSRSTSESTAALGCLVKDYFPEPVTVSWNSGALTSGVHTFPAVLQSSGLYSLSSVVTVPSSSLGTKTYTCNVDHKPSNTKVDKRV[human IgG4 Fc with S228P (EU numbers) omitted] light: DIVMTQSPDSLAVSLGERATINCKSSQSLLNSIDQKNYLAWYQQKPGQPPKLLIYFASTKESGVPDRFSGSGSGTDFTLTISSLQAEDVAVYYCQQHYSTPWTFGGGTKLEIKRTVAAPSVFIFPPSDEQLKSGTASVVCLLNNFYPREAKVQWKVDNALQSGNSQESVTEQDSKDSTYSLSSTLTLSKADYEKHKVYACEVTHQGLSSPVTKSFNRGEC |
